These are yes or no findings as the source states them, for the method shown. Binding seen in cells or lysates may run through a third protein. Some entries that bind do so weakly or less than the wild type. For some of these results: Sequences can lack the tags named with a protein.
Experiments:
[1] = biological target: T1, GFP-TSC22D4 full-length (FL) WT (human) (UniProt Q9Y3Q8); test: co-IP; HEK293 co-transfected with GFP-TSC22D2 WT (fig. S3B: TSC22D4) and HA-NRBP1 WT or mutants for 36 hours; GFP immunoprecipitation; HA immunoblot, densitometry (Fig. 3D)
T1 sequence: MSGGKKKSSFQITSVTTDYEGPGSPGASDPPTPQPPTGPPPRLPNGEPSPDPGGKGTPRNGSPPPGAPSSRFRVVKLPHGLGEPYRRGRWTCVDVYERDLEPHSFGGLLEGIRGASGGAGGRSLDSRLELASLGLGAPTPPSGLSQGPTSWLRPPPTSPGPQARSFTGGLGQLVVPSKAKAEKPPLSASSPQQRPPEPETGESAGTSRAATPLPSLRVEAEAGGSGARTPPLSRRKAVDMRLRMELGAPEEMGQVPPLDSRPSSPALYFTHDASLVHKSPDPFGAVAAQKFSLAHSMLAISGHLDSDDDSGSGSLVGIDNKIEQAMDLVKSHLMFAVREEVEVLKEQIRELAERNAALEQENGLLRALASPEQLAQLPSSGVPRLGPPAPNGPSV

Protein sequences, listed by entry. Tags and fused reporters are not part of them. Lines headed by an entry give the natural chain unless they say otherwise; changes in a name come on top.
UniProt Q9UHY1: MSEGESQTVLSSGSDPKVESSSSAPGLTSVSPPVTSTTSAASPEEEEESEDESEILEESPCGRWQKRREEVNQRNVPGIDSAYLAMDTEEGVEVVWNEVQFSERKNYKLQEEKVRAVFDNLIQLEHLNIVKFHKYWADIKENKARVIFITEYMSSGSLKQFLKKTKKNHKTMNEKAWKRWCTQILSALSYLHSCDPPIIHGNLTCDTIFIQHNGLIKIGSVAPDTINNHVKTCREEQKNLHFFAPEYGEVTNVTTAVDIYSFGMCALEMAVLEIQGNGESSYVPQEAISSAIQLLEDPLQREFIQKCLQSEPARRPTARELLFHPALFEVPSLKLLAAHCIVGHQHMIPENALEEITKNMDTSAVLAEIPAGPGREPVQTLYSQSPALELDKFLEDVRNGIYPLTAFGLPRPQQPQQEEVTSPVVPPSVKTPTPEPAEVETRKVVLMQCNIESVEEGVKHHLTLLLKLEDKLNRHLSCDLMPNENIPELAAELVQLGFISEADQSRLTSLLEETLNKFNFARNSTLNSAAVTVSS
UniProt Q9H4A3: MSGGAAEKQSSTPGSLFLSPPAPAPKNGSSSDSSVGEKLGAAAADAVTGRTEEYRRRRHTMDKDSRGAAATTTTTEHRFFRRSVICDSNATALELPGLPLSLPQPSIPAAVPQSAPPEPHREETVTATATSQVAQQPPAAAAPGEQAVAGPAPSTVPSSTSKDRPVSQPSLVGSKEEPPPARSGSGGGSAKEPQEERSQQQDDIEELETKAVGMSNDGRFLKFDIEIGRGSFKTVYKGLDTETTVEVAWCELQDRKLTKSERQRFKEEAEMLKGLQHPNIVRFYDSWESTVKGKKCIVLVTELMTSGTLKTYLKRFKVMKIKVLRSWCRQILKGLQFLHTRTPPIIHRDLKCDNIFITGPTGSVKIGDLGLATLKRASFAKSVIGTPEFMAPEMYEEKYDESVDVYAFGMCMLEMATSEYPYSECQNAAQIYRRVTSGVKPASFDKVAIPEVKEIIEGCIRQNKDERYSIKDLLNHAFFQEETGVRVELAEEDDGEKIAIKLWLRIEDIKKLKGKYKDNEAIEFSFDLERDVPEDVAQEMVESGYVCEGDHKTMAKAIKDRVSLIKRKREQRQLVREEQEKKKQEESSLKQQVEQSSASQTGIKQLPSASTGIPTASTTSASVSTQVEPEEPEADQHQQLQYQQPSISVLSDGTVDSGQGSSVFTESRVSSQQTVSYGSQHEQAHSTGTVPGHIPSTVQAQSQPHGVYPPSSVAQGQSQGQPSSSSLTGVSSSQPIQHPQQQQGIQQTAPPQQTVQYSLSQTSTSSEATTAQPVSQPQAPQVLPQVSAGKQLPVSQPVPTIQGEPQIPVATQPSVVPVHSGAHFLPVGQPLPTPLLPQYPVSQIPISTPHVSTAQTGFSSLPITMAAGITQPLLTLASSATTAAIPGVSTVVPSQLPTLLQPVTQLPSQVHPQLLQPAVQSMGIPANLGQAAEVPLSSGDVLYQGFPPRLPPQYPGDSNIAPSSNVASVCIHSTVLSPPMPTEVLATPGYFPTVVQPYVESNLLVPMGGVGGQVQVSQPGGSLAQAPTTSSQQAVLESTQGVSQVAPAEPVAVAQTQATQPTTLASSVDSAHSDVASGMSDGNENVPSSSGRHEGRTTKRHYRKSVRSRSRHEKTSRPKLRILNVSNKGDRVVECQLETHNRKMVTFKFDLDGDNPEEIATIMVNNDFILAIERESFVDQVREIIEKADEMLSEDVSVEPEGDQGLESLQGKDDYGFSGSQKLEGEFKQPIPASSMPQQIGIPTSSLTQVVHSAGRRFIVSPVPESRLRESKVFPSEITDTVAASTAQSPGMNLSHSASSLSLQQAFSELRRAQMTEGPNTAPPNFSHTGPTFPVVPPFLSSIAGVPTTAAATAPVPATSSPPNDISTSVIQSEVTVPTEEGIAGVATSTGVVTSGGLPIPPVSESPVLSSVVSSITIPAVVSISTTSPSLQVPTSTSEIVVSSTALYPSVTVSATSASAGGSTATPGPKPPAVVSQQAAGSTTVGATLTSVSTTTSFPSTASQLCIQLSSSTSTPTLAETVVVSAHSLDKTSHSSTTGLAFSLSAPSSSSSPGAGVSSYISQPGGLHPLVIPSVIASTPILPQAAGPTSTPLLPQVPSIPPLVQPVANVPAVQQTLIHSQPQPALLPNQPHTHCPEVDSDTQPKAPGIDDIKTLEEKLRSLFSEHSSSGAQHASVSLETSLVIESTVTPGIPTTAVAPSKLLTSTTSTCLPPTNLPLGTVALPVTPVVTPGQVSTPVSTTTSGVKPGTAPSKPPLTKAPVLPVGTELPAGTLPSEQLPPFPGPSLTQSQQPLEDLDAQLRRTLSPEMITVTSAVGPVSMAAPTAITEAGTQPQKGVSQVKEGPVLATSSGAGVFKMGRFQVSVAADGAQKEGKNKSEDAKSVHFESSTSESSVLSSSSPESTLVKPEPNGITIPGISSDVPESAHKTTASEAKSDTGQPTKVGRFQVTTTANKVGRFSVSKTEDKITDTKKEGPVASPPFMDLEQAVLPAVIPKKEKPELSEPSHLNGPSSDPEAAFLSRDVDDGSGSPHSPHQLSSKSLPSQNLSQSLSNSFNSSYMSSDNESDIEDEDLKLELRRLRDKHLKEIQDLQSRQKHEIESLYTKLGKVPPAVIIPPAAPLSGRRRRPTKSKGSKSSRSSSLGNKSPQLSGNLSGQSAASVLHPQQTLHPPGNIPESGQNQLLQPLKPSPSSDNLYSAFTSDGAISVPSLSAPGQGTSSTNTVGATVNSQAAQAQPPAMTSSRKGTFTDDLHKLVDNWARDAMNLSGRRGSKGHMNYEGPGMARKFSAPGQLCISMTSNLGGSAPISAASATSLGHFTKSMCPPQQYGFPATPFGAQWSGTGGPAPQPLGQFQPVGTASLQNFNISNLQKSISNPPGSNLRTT
UniProt Q9BYP7: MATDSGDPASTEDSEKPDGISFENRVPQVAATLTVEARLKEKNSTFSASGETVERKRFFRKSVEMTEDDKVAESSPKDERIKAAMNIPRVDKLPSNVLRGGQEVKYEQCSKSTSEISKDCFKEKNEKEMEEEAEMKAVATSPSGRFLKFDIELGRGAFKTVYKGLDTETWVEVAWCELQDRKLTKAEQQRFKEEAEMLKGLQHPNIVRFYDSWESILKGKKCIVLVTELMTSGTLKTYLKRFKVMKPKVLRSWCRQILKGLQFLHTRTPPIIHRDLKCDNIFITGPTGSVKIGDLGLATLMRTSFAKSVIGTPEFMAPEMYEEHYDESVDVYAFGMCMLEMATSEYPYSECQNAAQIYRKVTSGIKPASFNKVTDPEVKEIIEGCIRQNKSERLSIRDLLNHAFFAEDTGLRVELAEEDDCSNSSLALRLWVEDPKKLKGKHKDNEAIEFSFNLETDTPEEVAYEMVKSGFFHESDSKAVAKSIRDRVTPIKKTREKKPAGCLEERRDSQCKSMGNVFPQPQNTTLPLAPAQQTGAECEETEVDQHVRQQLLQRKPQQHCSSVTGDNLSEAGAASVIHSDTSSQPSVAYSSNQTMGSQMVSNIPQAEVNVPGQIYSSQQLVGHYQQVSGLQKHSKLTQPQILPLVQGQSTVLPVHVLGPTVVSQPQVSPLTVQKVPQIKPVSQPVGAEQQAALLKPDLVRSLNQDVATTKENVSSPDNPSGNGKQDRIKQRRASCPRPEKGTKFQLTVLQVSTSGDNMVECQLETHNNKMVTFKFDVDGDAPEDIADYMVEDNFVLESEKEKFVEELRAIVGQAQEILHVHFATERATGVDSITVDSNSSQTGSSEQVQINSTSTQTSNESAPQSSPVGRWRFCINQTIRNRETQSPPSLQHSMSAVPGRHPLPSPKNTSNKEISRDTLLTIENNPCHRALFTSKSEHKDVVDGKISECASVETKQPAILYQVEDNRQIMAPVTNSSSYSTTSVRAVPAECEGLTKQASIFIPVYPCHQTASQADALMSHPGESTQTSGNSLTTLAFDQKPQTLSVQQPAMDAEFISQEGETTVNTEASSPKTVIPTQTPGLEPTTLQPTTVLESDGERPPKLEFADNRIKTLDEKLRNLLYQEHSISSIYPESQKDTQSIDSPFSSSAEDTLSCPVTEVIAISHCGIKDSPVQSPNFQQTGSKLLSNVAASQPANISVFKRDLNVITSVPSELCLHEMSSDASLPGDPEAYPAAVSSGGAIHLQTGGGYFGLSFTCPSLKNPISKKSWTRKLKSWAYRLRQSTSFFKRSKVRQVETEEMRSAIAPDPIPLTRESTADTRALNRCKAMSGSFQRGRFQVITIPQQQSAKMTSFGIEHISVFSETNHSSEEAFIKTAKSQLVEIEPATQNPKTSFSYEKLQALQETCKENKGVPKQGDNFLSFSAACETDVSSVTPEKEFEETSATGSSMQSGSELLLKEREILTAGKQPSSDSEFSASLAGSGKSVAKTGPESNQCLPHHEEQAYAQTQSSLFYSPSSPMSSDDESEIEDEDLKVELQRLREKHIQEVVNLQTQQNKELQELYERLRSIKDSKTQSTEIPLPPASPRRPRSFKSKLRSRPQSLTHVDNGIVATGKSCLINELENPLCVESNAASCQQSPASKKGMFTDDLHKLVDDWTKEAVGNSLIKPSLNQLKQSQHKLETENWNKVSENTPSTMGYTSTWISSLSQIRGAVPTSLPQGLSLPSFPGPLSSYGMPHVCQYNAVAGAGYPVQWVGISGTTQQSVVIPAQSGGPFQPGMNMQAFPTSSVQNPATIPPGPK

[2] = biological target: NRBP1 in HEK293 cells (fig. S8D) (human) (UniProt Q9UHY1); test: co-IP; WNK1 (1 to 661) and NRBP1 in HEK293 cells (fig. S8D)
[3] = biological target: GFP-NRBP1 (N-terminal GFP knock-in at the endogenous NRBP1 locus) (human (endogenous in HEK293)) (UniProt Q9UHY1); test: co-IP; GFP-NRBP1 KI HEK293 cells with or without 0.5 M sorbitol (1 to 30 min; WNK inhibitors in Fig. 4F); immunoprecipitation with GFP nanobody beads; immunoblot of endogenous partners (Figs. 4E,F, 7C, fig. S5A)

Row | binding [3] | Substance | further results
1 | – | HA-NRBP1 WT (from UniProt Q9UHY1 1-535) | binding [1]: binds
2 | – | WNK1 fragment comprising the kinase domain (residues 1 to 661), expressed in HEK293 cells (from UniProt Q9H4A3 1-661) (domain or fragment) | binding [2]: binds
3 | binds | WNK1, endogenous (from UniProt Q9H4A3 1-2382) | –
4 | binds | WNK3, endogenous (from UniProt Q9BYP7 1-1800) | –

Reference: PMC12266122
